# Measured values reported in the supplement of paper PMC8728848.
# The list shows a part of the results.
# Legend:
# Assay in all cases: glycan array binding signal (z-score within array); higher = stronger binding
# Conditions in all cases: glycan notation: IUPAC condensed, linker removed
# [1] = biological target: Neu5Ac(a2-6)Gal(b1-4)GlcNAc(b1-2)Man(a1-3)[Man(a1-6)]Man(b1-4)GlcNAc(b1-4)GlcNAc
# Procedure, shortened: (§1)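 Glycan array data came from 3228 arrays in the Consortium for Functional Glycomics database, and only arrays with an available protein sequence were kept. Glycan names were put into IUPAC-condensed notation, and columns mapping to the same glycan were averaged. The binding signal is a within-array Z-score, averaged across arrays of one protein sequence run at different concentrations or buffers and across linkers. A negative Z-score can be read as non-binding.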
# [2] = biological target: Neu5Ac(a2-6)Gal(b1-4)GlcNAc(b1-2)Man(a1-3)[Neu5Ac(a2-3)Gal(b1-4)GlcNAc(b1-2)Man(a1-6)]Man(b1-4)GlcNAc(b1-4)GlcNAc
# Procedure, shortened: as §1
# [3] = biological target: Neu5Ac(a2-6)Gal(b1-4)GlcNAc(b1-2)Man(a1-3)[Neu5Ac(a2-6)Gal(b1-4)GlcNAc(b1-2)Man(a1-6)]Man(b1-4)GlcNAc(b1-4)GlcNAc
# Procedure, shortened: as §1
# [4] = biological target: Neu5Ac(a2-6)Gal(b1-4)GlcNAc(b1-2)Man(a1-3)[Neu5Ac(a2-6)Gal(b1-4)GlcNAc(b1-2)Man(a1-6)]Man(b1-4)GlcNAc(b1-4)[Fuc(a1-6)]GlcNAc
# Procedure, shortened: as §1
# [5] = biological target: Neu5Ac(a2-6)Gal(b1-4)GlcNAc(b1-2)Man(a1-6)Man(b1-4)GlcNAc(b1-4)GlcNAc
# Procedure, shortened: as §1
# [6] = biological target: Neu5Ac(a2-6)Gal(b1-4)GlcNAc(b1-2)Man(a1-6)[Gal(b1-4)GlcNAc(b1-2)Man(a1-3)]Man(b1-4)GlcNAc(b1-4)GlcNAc
# Procedure, shortened: as §1
# [7] = biological target: Neu5Ac(a2-6)Gal(b1-4)GlcNAc(b1-2)Man(a1-6)[GlcNAc(b1-2)Man(a1-3)]Man(b1-4)GlcNAc(b1-4)GlcNAc
# Procedure, shortened: as §1
# [8] = biological target: Neu5Ac(a2-6)Gal(b1-4)GlcNAc(b1-2)Man(a1-6)[Man(a1-3)]Man(b1-4)GlcNAc(b1-4)GlcNAc
# Procedure, shortened: as §1
# [9] = biological target: Neu5Ac(a2-6)Gal(b1-4)GlcNAc(b1-2)[Neu5Ac(a2-6)Gal(b1-4)GlcNAc(b1-4)]Man(a1-3)[GlcNAc(b1-4)][Neu5Ac(a2-6)Gal(b1-4)GlcNAc(b1-2)[Neu5Ac(a2-6)Gal(b1-4)GlcNAc(b1-6)]Man(a1-6)]Man(b1-4)GlcNAc(b1-4)GlcNAc
# Procedure, shortened: as §1
# [10] = biological target: Neu5Ac(a2-6)Gal(b1-4)GlcNAc(b1-2)[Neu5Ac(a2-6)Gal(b1-4)GlcNAc(b1-4)]Man(a1-3)[GlcNAc(b1-4)][Neu5Ac(a2-6)Gal(b1-4)GlcNAc(b1-4)Man(a1-6)]Man(b1-4)GlcNAc(b1-4)GlcNAc
# Procedure, shortened: as §1
# [11] = biological target: Neu5Ac(a2-6)Gal(b1-4)GlcNAc(b1-2)[Neu5Ac(a2-6)Gal(b1-4)GlcNAc(b1-6)]Man(a1-6)[Neu5Ac(a2-6)Gal(b1-4)GlcNAc(b1-2)Man(a1-3)][GlcNAc(b1-4)]Man(b1-4)GlcNAc(b1-4)GlcNAc
# Procedure, shortened: as §1
# [12] = biological target: Neu5Ac(a2-6)Gal(b1-4)GlcNAc(b1-3)Gal(b1-3)GlcNAc
# Procedure, shortened: as §1
# [13] = biological target: Neu5Ac(a2-6)Gal(b1-4)GlcNAc(b1-3)Gal(b1-4)GlcNAc
# Procedure, shortened: as §1
# [14] = biological target: Neu5Ac(a2-6)Gal(b1-4)GlcNAc(b1-3)Gal(b1-4)GlcNAc(b1-2)Man(a1-3)[Neu5Ac(a2-6)Gal(b1-4)GlcNAc(b1-3)Gal(b1-4)GlcNAc(b1-2)Man(a1-6)]GalNAc
# Procedure, shortened: as §1
# [15] = biological target: Neu5Ac(a2-6)Gal(b1-4)GlcNAc(b1-3)Gal(b1-4)GlcNAc(b1-3)Gal(b1-4)GlcNAc
# Procedure, shortened: as §1
# [16] = biological target: Neu5Ac(a2-6)Gal(b1-4)GlcNAc(b1-3)Gal(b1-4)GlcNAc(b1-3)Gal(b1-4)GlcNAc(b1-2)Man(a1-3)[Neu5Ac(a2-6)Gal(b1-4)GlcNAc(b1-3)Gal(b1-4)GlcNAc(b1-3)Gal(b1-4)GlcNAc(b1-2)Man(a1-6)]GalNAc
# Procedure, shortened: as §1
# [17] = biological target: Neu5Ac(a2-6)Gal(b1-4)GlcNAc(b1-3)Gal(b1-4)GlcNAc(b1-3)GalNAc
# Procedure, shortened: as §1
# [18] = biological target: Neu5Ac(a2-6)Gal(b1-4)GlcNAc(b1-3)Gal(b1-4)GlcNAc(b1-3)[Neu5Ac(a2-6)Gal(b1-4)GlcNAc(b1-3)Gal(b1-4)GlcNAc(b1-6)]GalNAc
# Procedure, shortened: as §1
# [19] = biological target: Neu5Ac(a2-6)Gal(b1-4)GlcNAc(b1-3)Gal(b1-4)GlcNAc(b1-6)[Gal(b1-3)]GalNAc
# Procedure, shortened: as §1
# [20] = biological target: Neu5Ac(a2-6)Gal(b1-4)GlcNAc(b1-3)Gal(b1-4)[Fuc(a1-3)]GlcNAc(b1-3)Gal(b1-4)[Fuc(a1-3)]GlcNAc
# Procedure, shortened: as §1
# [21] = biological target: Neu5Ac(a2-6)Gal(b1-4)GlcNAc(b1-3)GalNAc
# Procedure, shortened: as §1
# [22] = biological target: Neu5Ac(a2-6)Gal(b1-4)GlcNAc(b1-3)[Neu5Ac(a2-6)Gal(b1-4)GlcNAc(b1-6)]GalNAc
# Procedure, shortened: as §1
# [23] = biological target: Neu5Ac(a2-6)Gal(b1-4)GlcNAc(b1-6)GalNAc
# Procedure, shortened: as §1
# [24] = biological target: Neu5Ac(a2-6)Gal(b1-4)GlcNAc(b1-6)[Gal(b1-3)GlcNAc(b1-3)]Gal(b1-4)Glc
# Procedure, shortened: as §1
# [25] = biological target: Neu5Ac(a2-6)Gal(b1-4)GlcNAc(b1-6)[Gal(b1-3)]GalNAc
# Procedure, shortened: as §1
# [26] = biological target: Neu5Ac(a2-6)Gal(b1-4)GlcNAc6S
# Procedure, shortened: as §1
# Neu5Ac(a2-6)GalNAc = biological target: Neu5Ac(a2-6)GalNAc
# Procedure, shortened: as §1
# [27] = biological target: Neu5Ac(a2-6)GalNAc(b1-4)GlcNAc
# Procedure, shortened: as §1
# [28] = biological target: Neu5Ac(a2-6)GalNAc(b1-4)GlcNAc6S
# Procedure, shortened: as §1
# [29] = biological target: Neu5Ac(a2-6)GlcNAc(b1-4)GlcNAc
# Procedure, shortened: as §1
# [30] = biological target: Neu5Ac(a2-6)GlcNAc(b1-4)GlcNAc(b1-4)GlcNAc
# Procedure, shortened: as §1
binder,measurement,setting,value
LngA (Escherichia coli) (protein) MLSVYNRTQKFKAEARKKIAKYHELRKQRGMSLLEVIIVLGIIGTIAAGVVILAQRAFDSRAVTDLVTNTNTVRVRMKDAYQRDGKYPDFVDPLSLTANTIKTDTSGIPAAQLVQLGKITPDEVRNNISGDFIAIGGALTSNGAQVKKGFAIELNGLSQEQCRSILGQVGNNWEYVAIGTSASGSYAMTATGVDMSVAASTTVLRSLGNNGQTTLTADKILSTCTAQVNSITLGSR,glycan array binding signal (z-score),[1],-0.28
same,glycan array binding signal (z-score),[2],-0.481
same,glycan array binding signal (z-score),[3],-0.455
same,glycan array binding signal (z-score),[4],-0.387
same,glycan array binding signal (z-score),[5],-0.544
same,glycan array binding signal (z-score),[6],-0.041
same,glycan array binding signal (z-score),[7],-0.467
same,glycan array binding signal (z-score),[8],-0.567
same,glycan array binding signal (z-score),[9],-0.186
same,glycan array binding signal (z-score),[10],-0.379
same,glycan array binding signal (z-score),[11],-0.516
same,glycan array binding signal (z-score),[12],-0.476
same,glycan array binding signal (z-score),[13],-0.493
same,glycan array binding signal (z-score),[14],0.701
same,glycan array binding signal (z-score),[15],-0.502
same,glycan array binding signal (z-score),[16],2.43
same,glycan array binding signal (z-score),[17],-0.361
same,glycan array binding signal (z-score),[18],-0.346
same,glycan array binding signal (z-score),[19],-0.111
same,glycan array binding signal (z-score),[20],-0.37
same,glycan array binding signal (z-score),[21],-0.436
same,glycan array binding signal (z-score),[22],-0.298
same,glycan array binding signal (z-score),[23],2.77
same,glycan array binding signal (z-score),[24],-0.407
same,glycan array binding signal (z-score),[25],0.036
same,glycan array binding signal (z-score),[26],-0.346
same,glycan array binding signal (z-score),Neu5Ac(a2-6)GalNAc,-0.334
same,glycan array binding signal (z-score),[27],-0.474
same,glycan array binding signal (z-score),[28],-0.275
same,glycan array binding signal (z-score),[29],-0.526
same,glycan array binding signal (z-score),[30],0.517
